In PubChem BioAssay AID485294 (National Center for Advancing Translational Sciences (NCATS), 2010):
About 150 (0.041%) of roughly 370,000 compounds were called active. Inconclusive means that the source gave no clear call. Such entries were picked first, then a sample of the others. Calls come from the whole dose curve; as a rule, active = well fitted inhibition curve with a large enough effect; inconclusive = small, poorly fitted or top-dose-only effect; inactive = flat fitted curve, though single readings scatter. Potencies of inconclusive entries are left out as doubtful fits.

biological target: Beta-lactamase (Escherichia coli (strain K12)) (UniProt P00811); experiment: qHTS Inhibitors of AmpC Beta-Lactamase (assay with detergent); conditions: AmpC hydrolysis of nitrocefin, absorbance 480 nm, 0.01% Triton; series mostly up to 114 µM; note: nearly all actives have a fitted effect of over 25% in size
Sequence of UniProt P00811 (P00811 whole entry, looked up): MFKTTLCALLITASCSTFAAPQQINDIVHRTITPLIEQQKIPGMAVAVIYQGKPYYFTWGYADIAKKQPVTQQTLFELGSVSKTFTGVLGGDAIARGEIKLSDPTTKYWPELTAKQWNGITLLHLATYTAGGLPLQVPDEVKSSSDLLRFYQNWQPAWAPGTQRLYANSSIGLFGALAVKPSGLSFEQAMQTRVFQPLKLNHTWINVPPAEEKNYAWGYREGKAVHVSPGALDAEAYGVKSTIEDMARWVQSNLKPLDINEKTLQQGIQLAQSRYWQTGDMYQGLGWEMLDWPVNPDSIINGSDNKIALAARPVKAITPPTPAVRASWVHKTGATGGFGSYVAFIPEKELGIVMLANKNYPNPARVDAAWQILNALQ
Summary of the method: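 AmpC (5.3 nM in the dispensed reagent) in 20 mM phosphate pH 7.0 with 0.01% (detergent screen) or 0.0001% Triton X-100 was preincubated with compounds for 15 min at room temperature. Nitrocefin was then added from an 800 uM solution, and hydrolysis was followed at 480 nm.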
Potency is the fitted concentration of half-maximal effect; tags give direction and shape of the fitted curve.

Structure (SMILES) | Potency
Cc1cc(C)n(-c2nc(NCCC(C)C)c3c4c(sc3n2)COC(C)(C)C4)n1 | inconclusive [inhibitor, single point]
Cc1cc(C)n(Cc2ccc(C(=O)O)o2)n1 | inconclusive [inhibitor, single point]
Cn1c(-c2ccc(F)cc2)cnc1NCc1ccccc1F | inconclusive [inhibitor, full curve, poor fit]
Clc1ccc(OCCSc2ncccn2)c(Br)c1 | inactive
COc1cccc(-c2nc(CS(=O)(=O)CC(=O)NCCCN3CC(C)CC(C)C3)c(C)o2)c1 (configuration not stated) | inactive
Cc1ccc2oc(=O)c3cnn(CC(=O)N(CCCN4CCOCC4)Cc4ccco4)c3c2c1 | inconclusive [inhibitor, full curve, poor fit]
COc1ccc(C)cc1NC(=O)C(Sc1ccccc1)c1ccccc1 (configuration not stated) | inconclusive [inhibitor, single point]
CCN(CC(=O)N1CCCC1)S(=O)(=O)c1cc(C)ccc1OC | inconclusive [inhibitor, full curve, poor fit]
Nc1c(C(=O)Nc2ccc(Br)cc2)sc2nc(-c3ccco3)ccc12 | inactive
COc1ccc(-n2c(COc3ccccc3)nnc2SCc2ccc(C#N)cc2)cc1 | inconclusive [inhibitor, full curve]
CC(C)C(c1nnnn1Cc1ccco1)N1CCC(C(N)=O)CC1 (configuration not stated) | inconclusive [inhibitor, partial curve, poor fit]
Cc1cccc(NC(=O)N2CCC(C(=O)c3ccc(F)cc3)CC2)c1 | inactive
CCCC[C@@H](CNC)NC[C@H](NCCCCC1CCCCC1)C(C)C | inactive
CCc1nnc(NC(=O)CSc2nccn2-c2ccccc2)s1 | inconclusive [inhibitor, full curve, poor fit]
C=CCn1c(=NC(=O)C2COc3ccccc3O2)sc2cc(S(N)(=O)=O)ccc21 (configuration not stated) | inconclusive [inhibitor, full curve, poor fit]
COc1ccc(NC(=O)c2cc(-c3ccccc3)on2)cc1OC | inconclusive [inhibitor, full curve, poor fit]
Cc1ccccc1CSc1nnc2[nH]c(=O)cc(C)n12 | inactive
CCOc1ccc(NC(=O)CSc2nnc(-c3ccc(C)cc3)c(-c3ccc(C)cc3)n2)cc1 | inactive
COc1cc(Cl)c(C)cc1NC(=O)CSc1nnc(-c2cccnc2)n1Cc1ccco1 | inconclusive [inhibitor, full curve, poor fit]
CSc1cccc(NC(=O)C2CCN(S(=O)(=O)c3ccc4c(c3)NC(=O)CO4)CC2)c1 | inconclusive [inhibitor, full curve, poor fit]
O=C(O)c1ccc2c(c1)C(=O)N(c1ccc([N+](=O)[O-])cn1)C2=O | inconclusive [inhibitor, partial curve, poor fit]
CC(=O)N1CCc2cc(S(=O)(=O)CCC(=O)NCCc3ccc(Cl)cc3)ccc21 | inactive
Cc1ccccc1CN1c2ccccc2-c2nc(SCC(=O)NCCc3ccccc3)ncc2S1(=O)=O | inactive

Structure (SMILES) | Potency
Cc1cc(/C=C\c2ccc3cc(N(C)C)ccc3[n+]2C)c(C)n1-c1ccccc1 | inactive
Cc1[nH]n(-c2ccccc2)c(=O)c1C(c1ccc([N+](=O)[O-])cc1)c1c(C)[nH]n(-c2ccccc2)c1=O | inactive
COc1ccc(C(=O)NCC(c2cccnc2)N2CCN(c3ccccc3OC)CC2)cc1OC (configuration not stated) | inconclusive [inhibitor, full curve, poor fit]
O=C(c1ccco1)N1CCN(CCCCOc2cccc3ccccc23)CC1 | inconclusive [inhibitor, full curve, poor fit]
CC(=O)Nc1ccc(N2Cc3ccccc3C2)cc1 | inconclusive [inhibitor, partial curve, poor fit]
COc1ccc(S(=O)(=O)N2CCCOC2CNC(=O)C(=O)NC2CCCC2)cc1 (configuration not stated) | inconclusive [inhibitor, partial curve]
N=c1c2c(-c3ccccc3)c(-c3ccccc3)n(Cc3ccco3)c2ncn1Cc1ccco1 | inconclusive [inhibitor, partial curve]
CN(C)S(=O)(=O)c1ccc2c(c1)C(CC(=O)O)NC2=O (configuration not stated) | inconclusive [inhibitor, full curve]
COc1cc(C(=O)NCC(=O)NCCN2C(=O)S/C(=C\c3ccccc3Cl)C2=O)cc(OC)c1OC | inconclusive [inhibitor, full curve, poor fit]
COc1ccc2oc(-c3ccccc3)c(C(N)=O)c2c1 | inconclusive [inhibitor, single point]
Cc1ccc(NC(=O)C2CCCN(c3nnc(-n4c(C)ccc4C)s3)C2)cc1Cl (configuration not stated) | inactive
Cc1cc(C(=O)OCC(=O)N2CCN(C(=O)c3ccco3)CC2)c(C)n1-c1ccc(F)cc1 | inactive
O=C(CSc1nnc(COc2ccc(Cl)cc2)o1)N1CCN(c2ccccc2)CC1 | inconclusive [inhibitor, full curve, poor fit]
Cc1ccc(C)c(-c2nc3cc(N)ccc3o2)c1 | inactive
NC(=O)c1c(NC(=O)CSc2nnc(Cc3ccccc3)n2Cc2ccco2)sc2c1CCC2 | inactive
Cc1cnc(NCCc2ccccc2)s1 | inconclusive [inhibitor, full curve, poor fit]
Cc1ccc(NC2=NC(=S)N(CC#N)C23CCCCC3)cc1 | inconclusive [inhibitor, single point]
Cc1ccc(NS(=O)(=O)c2cccc3nsnc23)cc1C | inactive
N#C/C(=C/c1cn(-c2ccccc2)nc1-c1cccc(S(=O)(=O)N2CCOCC2)c1)C(=O)NCc1ccco1 | inactive
CNCc1ccccc1OCc1ccc(F)cc1 | inconclusive [inhibitor, full curve, poor fit]
CCOc1ccc(C(C(=O)NC2CCCC2)N(C(=O)CNC(=O)c2ccco2)c2cccnc2)cc1 (configuration not stated) | inconclusive [inhibitor, single point]
Cn1c(SCC(=O)N2CCCCCC2)nnc1-c1ccco1 | inconclusive [inhibitor, full curve, poor fit]
Cc1cc(C(=O)NNC(=S)NC(=O)/C=C/c2ccccc2Cl)n[nH]1 | inconclusive [inhibitor, full curve, poor fit]

Structure (SMILES) | Potency
O=C(Nc1cccc(N=Cc2cc(Br)cc(Br)c2O)c1)c1ccco1 | inconclusive [inhibitor, full curve, poor fit]
COc1ccc(NC(=O)CCn2nnc(-c3ccc(C)cc3)n2)cc1OC | inconclusive [inhibitor, single point]
Cc1cc(C)c(C)c(S(=O)(=O)N[C@@H](C)C(=O)OCC(N)=O)c1C | inconclusive [inhibitor, full curve]
CC(=O)NC(CC(C)C)C(=O)NC(Cc1ccccc1)C(N)=O (configuration not stated) | inactive
CS(=O)(=O)c1ccc(-c2nnc(NC(=O)C3=COCCO3)o2)cc1 | inconclusive [inhibitor, full curve]
CC(=O)N1CCc2cc(Br)cc(S(=O)(=O)NCCCN(C)Cc3ccccc3)c21 | inactive
O=C(NCC1CCCO1)C(=O)NCC(c1ccco1)N1CCN(c2ccccc2)CC1 (configuration not stated) | inactive
COc1cc(/C=N/NC(=O)c2ccccc2O)ccc1OCC(=O)Nc1ccccc1 | inconclusive [inhibitor, partial curve]
Cc1cc(/C=C(\C#N)c2nnc(N3CCOCC3)n2-c2ccccc2)c(C)n1-c1ccccc1 | inconclusive [inhibitor, full curve, poor fit]
COc1ccc2c(-c3ccccc3)cc(SCC(=O)NC(N)=O)nc2c1 | inconclusive [inhibitor, full curve, poor fit]
CC(C)Cc1cc(C(=O)Nc2cc(Br)ccc2O)no1 | inconclusive [inhibitor, full curve, poor fit]
Cc1nc(SCC(=O)Nc2c(C)n(C)n(-c3ccccc3)c2=O)c(C#N)c(C)c1C | inconclusive [inhibitor, single point]
Cc1cnc(NC(=O)c2ccncc2)s1 | inconclusive [inhibitor, full curve, poor fit]
CN(C)N1C(N)=C(C#N)C(c2cccnc2)C2=C1CC(C)(C)CC2=O (configuration not stated) | inactive
COc1ccc([C@@H]2[C@@H](C(=O)C(C)(C)C)N3N=Cc4ccccc4[C@@H]3C23C(=O)OC(C)(C)OC3=O)cc1OC | inconclusive [inhibitor, single point]
O=C(Cn1nc(Cc2cccnc2)c2ccccc2c1=O)Nc1cccc(C(F)(F)F)c1 | inactive
Cc1nc(-c2ccc(S(=O)(=O)Nc3ccccc3C)cc2)co1 | inconclusive [inhibitor, full curve, poor fit]
Cc1nc(SCC(=O)c2cc3ccccc3oc2=O)c(C#N)c(-c2cccs2)c1C(=O)Nc1ccccc1 | inconclusive [inhibitor, single point]
O=C(Nc1ccccc1Oc1cccnc1)C1CCCN(Cc2cccc(Cl)c2)C1 (configuration not stated) | inconclusive [inhibitor, partial curve]
Cc1ccc2[nH]c(=O)c(CN(Cc3nnnn3C3CCCC3)C3CCCCC3)cc2c1 | inactive
COc1ccc(NC(=O)c2noc3c2CSc2ccccc2-3)cc1Cl | inactive
